Results as given in article PMC12820563, “FoxP3 forms a head-to-head dimer in vivo and stabilizes its multimerization on adjacent microsatellites”.
This is one part of the list.

Each sequence was assayed against T1, MBP-FoxP1dN (Mus musculus, UniProt P58462 326-579) (assay: PD-seq (MBP pull-down with sequencing); 20 mM Tris-HCl pH 7.5, 100 mM NaCl, 1.5 mM MgCl2, 0.4 uM protein, 0.1 uM dsDNA library, 30 min, room temperature, amylose pull-down; high values mean tight binding). Settings: protein: recombinant; tags: His6-MBP; chain copies: 2; dsDNA, one strand shown.
T1 sequence: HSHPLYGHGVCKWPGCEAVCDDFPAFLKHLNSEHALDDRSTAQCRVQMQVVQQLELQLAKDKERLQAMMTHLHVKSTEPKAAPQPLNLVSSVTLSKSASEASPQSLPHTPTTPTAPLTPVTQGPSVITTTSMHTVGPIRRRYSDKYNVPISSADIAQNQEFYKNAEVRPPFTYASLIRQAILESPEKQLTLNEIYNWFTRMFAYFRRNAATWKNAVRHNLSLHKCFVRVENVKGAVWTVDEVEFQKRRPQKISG
Summary of the method: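 E. coli-expressed mouse FoxP3 or FoxP1 fragment, N-terminus removed and tagged with His6-MBP, was used at 0.4 µM against 0.1 µM of a Klenow-filled degenerate double-stranded DNA library. After 30 min at room temperature in Tris pH 7.5 buffer with NaCl and MgCl2, complexes were pulled down on amylose resin and washed three times. Binding is pull-down over input reads-per-million enrichment from pooled replicates of the proteinase K-released, PCR-barcoded, Illumina-sequenced DNA.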

Sequence | binding signal
GATGATTGTTCTCCCAGCTGATGAATTGTGATAGTCGAGTAAACAAATTTTCCTAATCTTTCTGTTCAAGCGCCATCTAC | 1.22 RPM ratio (pull-down/input)
GATGATTGTTCTCCCAGCTGATGAATTGCTTGTCTCGAGTAAACAAATTTTCCTAATCTTTCTGTTCAAGCGCCATCTAC | 1.17 RPM ratio (pull-down/input)
GATGATTGTTCTCCCAGCTGATGAATTCGGCATATCGAGTAAACAAATTTTCCTAATCTTTCTGTTCAAGCGCCATCTAC | 0.959 RPM ratio (pull-down/input)
GATGATTGTTCTCCCAGCTGATGAATTTGTAAGCTCGAGTAAACAAATTTTCCTAATCTTTCTGTTCAAGCGCCATCTAC | 1.02 RPM ratio (pull-down/input)
GATGATTGTTCTCCCAGCTGATGAATTAGCCTCATCGAGTAAACAAATTTTCCTAATCTTTCTGTTCAAGCGCCATCTAC | 0.905 RPM ratio (pull-down/input)
GATGATTGTTCTCCCAGCTGATGAATTCGAGTGATCGAGTAAACAAATTTTCCTAATCTTTCTGTTCAAGCGCCATCTAC | 0.94 RPM ratio (pull-down/input)
GATGATTGTTCTCCCAGCTGATGAATTGGAGCCTTCGAGTAAACAAATTTTCCTAATCTTTCTGTTCAAGCGCCATCTAC | 0.786 RPM ratio (pull-down/input)
GATGATTGTTCTCCCAGCTGATGAATTAGCGCTATCGAGTAAACAAATTTTCCTAATCTTTCTGTTCAAGCGCCATCTAC | 0.909 RPM ratio (pull-down/input)
GATGATTGTTCTCCCAGCTGATGAATTCTATTGTTCGAGTAAACAAATTTTCCTAATCTTTCTGTTCAAGCGCCATCTAC | 1.99 RPM ratio (pull-down/input)
GATGATTGTTCTCCCAGCTGATGAATTCTAAGACTCGAGTAAACAAATTTTCCTAATCTTTCTGTTCAAGCGCCATCTAC | 0.821 RPM ratio (pull-down/input)
GATGATTGTTCTCCCAGCTGATGAATTCAATTACTCGAGTAAACAAATTTTCCTAATCTTTCTGTTCAAGCGCCATCTAC | 1.08 RPM ratio (pull-down/input)
GATGATTGTTCTCCCAGCTGATGAATTAAGCTGTTCGAGTAAACAAATTTTCCTAATCTTTCTGTTCAAGCGCCATCTAC | 0.846 RPM ratio (pull-down/input)
GATGATTGTTCTCCCAGCTGATGAATTCGACCCTTCGAGTAAACAAATTTTCCTAATCTTTCTGTTCAAGCGCCATCTAC | 0.81 RPM ratio (pull-down/input)
GATGATTGTTCTCCCAGCTGATGAATTACTGTTTTCGAGTAAACAAATTTTCCTAATCTTTCTGTTCAAGCGCCATCTAC | 2.6 RPM ratio (pull-down/input)
GATGATTGTTCTCCCAGCTGATGAATTTCGTGAGTCGAGTAAACAAATTTTCCTAATCTTTCTGTTCAAGCGCCATCTAC | 0.804 RPM ratio (pull-down/input)
GATGATTGTTCTCCCAGCTGATGAATTTTGCAGCTCGAGTAAACAAATTTTCCTAATCTTTCTGTTCAAGCGCCATCTAC | 0.865 RPM ratio (pull-down/input)

Sequence | binding signal
GATGATTGTTCTCCCAGCTGATGAATTCACAGCTTCGAGTAAACAAATTTTCCTAATCTTTCTGTTCAAGCGCCATCTAC | 0.867 RPM ratio (pull-down/input)
GATGATTGTTCTCCCAGCTGATGAATTCTAGGTCTCGAGTAAACAAATTTTCCTAATCTTTCTGTTCAAGCGCCATCTAC | 0.774 RPM ratio (pull-down/input)
GATGATTGTTCTCCCAGCTGATGAATTCTTATTGTCGAGTAAACAAATTTTCCTAATCTTTCTGTTCAAGCGCCATCTAC | 2.49 RPM ratio (pull-down/input)
GATGATTGTTCTCCCAGCTGATGAATTTAAGCCTTCGAGTAAACAAATTTTCCTAATCTTTCTGTTCAAGCGCCATCTAC | 0.856 RPM ratio (pull-down/input)
GATGATTGTTCTCCCAGCTGATGAATTGTAACCCTCGAGTAAACAAATTTTCCTAATCTTTCTGTTCAAGCGCCATCTAC | 0.91 RPM ratio (pull-down/input)
GATGATTGTTCTCCCAGCTGATGAATTTAATGGTTCGAGTAAACAAATTTTCCTAATCTTTCTGTTCAAGCGCCATCTAC | 0.868 RPM ratio (pull-down/input)
GATGATTGTTCTCCCAGCTGATGAATTCTTTAGATCGAGTAAACAAATTTTCCTAATCTTTCTGTTCAAGCGCCATCTAC | 0.914 RPM ratio (pull-down/input)
GATGATTGTTCTCCCAGCTGATGAATTAAACTTATCGAGTAAACAAATTTTCCTAATCTTTCTGTTCAAGCGCCATCTAC | 0.94 RPM ratio (pull-down/input)
GATGATTGTTCTCCCAGCTGATGAATTTCCCGTTTCGAGTAAACAAATTTTCCTAATCTTTCTGTTCAAGCGCCATCTAC | 0.791 RPM ratio (pull-down/input)
GATGATTGTTCTCCCAGCTGATGAATTACTCGCTTCGAGTAAACAAATTTTCCTAATCTTTCTGTTCAAGCGCCATCTAC | 0.986 RPM ratio (pull-down/input)
GATGATTGTTCTCCCAGCTGATGAATTGAAACCGTCGAGTAAACAAATTTTCCTAATCTTTCTGTTCAAGCGCCATCTAC | 0.817 RPM ratio (pull-down/input)
GATGATTGTTCTCCCAGCTGATGAATTCCTTTATTCGAGTAAACAAATTTTCCTAATCTTTCTGTTCAAGCGCCATCTAC | 0.944 RPM ratio (pull-down/input)
GATGATTGTTCTCCCAGCTGATGAATTCCGGCTTTCGAGTAAACAAATTTTCCTAATCTTTCTGTTCAAGCGCCATCTAC | 0.857 RPM ratio (pull-down/input)
GATGATTGTTCTCCCAGCTGATGAATTTCTGGGATCGAGTAAACAAATTTTCCTAATCTTTCTGTTCAAGCGCCATCTAC | 0.862 RPM ratio (pull-down/input)
GATGATTGTTCTCCCAGCTGATGAATTGGGCTTTTCGAGTAAACAAATTTTCCTAATCTTTCTGTTCAAGCGCCATCTAC | 0.907 RPM ratio (pull-down/input)
